In all, about 33,000 sequences were measured (“E-score (-0.5 to 0.5)”: median about -0.043, highest 2% from about 0.37 on). The list shows a part of the results.
Target: T1, Upc2 (UniProt Q12151)
T1 sequence: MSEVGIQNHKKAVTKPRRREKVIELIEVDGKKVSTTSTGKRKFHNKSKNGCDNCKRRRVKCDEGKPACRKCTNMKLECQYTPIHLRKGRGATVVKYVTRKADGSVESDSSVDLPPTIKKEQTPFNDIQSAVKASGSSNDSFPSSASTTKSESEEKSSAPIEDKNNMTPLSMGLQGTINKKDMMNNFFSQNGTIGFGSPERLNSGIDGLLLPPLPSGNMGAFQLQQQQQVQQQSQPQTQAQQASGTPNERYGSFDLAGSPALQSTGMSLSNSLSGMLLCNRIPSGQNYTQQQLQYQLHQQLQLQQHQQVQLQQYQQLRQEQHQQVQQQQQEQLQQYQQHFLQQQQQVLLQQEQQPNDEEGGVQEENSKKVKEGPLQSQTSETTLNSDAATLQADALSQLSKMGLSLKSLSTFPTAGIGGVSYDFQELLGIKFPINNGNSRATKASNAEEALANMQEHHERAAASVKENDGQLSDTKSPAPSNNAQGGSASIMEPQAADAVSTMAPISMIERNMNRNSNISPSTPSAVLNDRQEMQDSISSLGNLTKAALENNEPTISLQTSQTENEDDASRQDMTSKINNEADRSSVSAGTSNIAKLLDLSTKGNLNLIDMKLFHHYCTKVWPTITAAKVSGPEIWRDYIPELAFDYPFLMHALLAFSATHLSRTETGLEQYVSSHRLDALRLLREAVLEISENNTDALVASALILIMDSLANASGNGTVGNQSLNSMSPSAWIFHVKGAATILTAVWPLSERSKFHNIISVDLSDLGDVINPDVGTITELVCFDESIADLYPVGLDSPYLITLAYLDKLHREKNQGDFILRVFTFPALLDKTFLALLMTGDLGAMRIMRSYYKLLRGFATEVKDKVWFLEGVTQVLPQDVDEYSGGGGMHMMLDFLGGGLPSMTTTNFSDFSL
Test: PBM E-score (8-mer binding enrichment) (E-score (-0.5 to 0.5)); higher = stronger / more preferred TF binding; most listed sequences are background and not binding sites
Conditions: protein concentration: 200 nM; construct: GST-full length
Method in brief: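 Yeast transcription factors, full-length or as DNA-binding domains, were expressed with a GST tag using PURExpress in vitro transcription/translation. At about 100-200 nM they were applied to universal all-10-mer Agilent arrays, double-stranded by primer extension on fresh or once-stripped slides. Fluorescent anti-GST detected bound protein, and masliner normalised the scans. E-scores for ungapped eight-base words, pooled with reverse complements, came from the Universal PBM Analysis Suite.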

Sequence | PBM E-score
CCCCACTC | 0.0794
AGCTGGCG | -0.0685
ACCTGCTC | 0.0469
CATGTAAC | 0.017
TAGAGTGA | -0.255
CGCACGTC | -0.106
GCAATTCA | -0.0134
GAGCCGTA | 0.308
CACCAATA | -0.122
CGCTATTA | 0.106
AGGTATCG | 0.0877
CTGGGGTC | -0.244
CAAAGGAA | 0.137
AAGTCTAT | -0.209
CATTTGGG | 0.0514
CTTAGGCA | -0.361
ACCGTCAC | -0.236
AAGAGGTA | 0.0352
GACATCTC | 0.0241
CGTTGTAG | 0.00423
AACGCTTA | 0.071
TATGCGAA | 0.346

Sequence | PBM E-score
ATGGATCC | -0.148
GATTCGAC | -0.109
ATGGGGTA | -0.0229
TCGGAAGA | -0.00408
GTACCAAA | 0.161
GGGTTGTA | 0.00302
CGAGGACG | 0.197
AACCTCAA | -0.138
CATATGCG | 0.245
GGCTCTTA | 0.133
ATTTACCG | 0.165
GTCCGGTA | 0.0427
CGTATTTC | 0.314
GGTAGAGA | -0.0945
AAATCGCG | 0.0964
CAATACCA | -0.0526
TCTACTAA | 0.0296
TGCGCGAA | 0.186
TCCATCGA | -0.0738
CAACTGGC | -0.184
CCTCCACC | -0.195
GAGATCGA | -0.127

Sequence | PBM E-score
GCTGACCC | -0.182
ACGATCAA | 0.228
ACGGAGCA | -0.00346
ACTTTACT | -0.151
AGTTATTC | 0.162
ATACAGTG | 0.118
ACTTGGTA | 0.091
CTGGGGAC | -0.239
GGGGTACC | -0.301
AGTGGTTA | 0.127
AGGGTAGG | -0.331
CCATACGC | 0.322
AAGCCTTA | 0.00135
GTCGTGCA | 0.038
AAAGACTG | 0.103
GCGGCGAA | -0.0606
TAGTAGAA | 0.105
ATTGTAGA | 0.0288
GGGCTTAA | -0.131
CCGCTGAA | -0.042
CCTGCTCA | -0.176
ACTACGAG | 0.284

Sequence | PBM E-score
GCCTTGAC | -0.234
AAAAAGGT | -0.0451
AAGTAACA | -0.157
CTAGTAGC | 0.0825
CCAGCGGC | -0.197
GCCCAGAA | -0.131
CCTTAGCG | 0.132
AAGGTCTA | 0.00968
AATCGCAT | 0.0361
ATTGAAGC | -0.0421
TATTTGAA | -0.04
CCAACACA | 0.0458
ACTCATAC | 0.285
CTTAGACA | -0.0523
ATAACTAT | 0.109
GGCATGAC | -0.0533
TACTAATA | 0.0789
GCGCGCAC | -0.0883
CGGTGACG | -0.032
CTCATCTC | -0.0248

— the supplement of paper PMC3334620
